The list shows a part of the results. Repeats are few or missing, and single values can be far off.
Legend:
Experiment in all cases: cell count relative to DMSO control; melanoma cells; higher = more viable cells
Conditions in all cases: library dose: standard library concentration; 72 h
G361 = system: G361
IPC-298 = system: IPC-298
IST-MEL1 = system: IST-MEL1
LB2518-MEL = system: LB2518-MEL
LOXIMVI = system: LOXIMVI
MEL-HO = system: MEL-HO
MZ2-MEL = system: MZ2-MEL
MeWo = system: MeWo
RPMI7951 = system: RPMI7951
RVH-421 = system: RVH-421
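Also: cells treated in 1,536-well plates, then fixed and DAPI-stained, with nuclei counted from automated high-throughput microscope images.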

SMILES | cell count (G361) [%] | cell count (IPC-298) [%] | cell count (IST-MEL1) [%] | cell count (LB2518-MEL) [%] | cell count (LOXIMVI) [%] | cell count (MEL-HO) [%] | cell count (MZ2-MEL) [%] | cell count (MeWo) [%] | cell count (RPMI7951) [%] | cell count (RVH-421) [%]
Cc1ccc(Nc2nccc(N(C)c3ccc4c(C)n(C)nc4c3)n2)cc1S(N)(=O)=O [Pazopanib] + Cc1ccc(NC(=O)c2cccc(N(C)C)c2)cc1NC(=O)c1ccc(O)cc1 [ZM336372] (first compound 2 µM, partner dose 10 µM) | 76.2 | 86.9 | 100 | 82.5 | 76.2 | 92.1 | 84.1 | 74 | 75.4 | 90.1
Cc1ccc(Nc2nccc(N(C)c3ccc4c(C)n(C)nc4c3)n2)cc1S(N)(=O)=O [Pazopanib] + COCC[n+]1c2c(n(Cc3cnccn3)c1C)C(=O)c1ccccc1C2=O [YM155] (first compound 2 µM, partner dose 0.002 µM) | 71.6 | 36.6 | 49.6 | 19.8 | 64.8 | 99 | 24.8 | 34.5 | 60.3 | 135
Cc1ccc(Nc2nccc(N(C)c3ccc4c(C)n(C)nc4c3)n2)cc1S(N)(=O)=O [Pazopanib] + CN1CCN(c2ccc3nc(-c4c(N)c5c(F)cccc5[nH]c4=O)[nH]c3c2)CC1 [Dovitinib] (first compound 2 µM, partner dose 0.5 µM) | 47.5 | 63.7 | 79 | 44.5 | 103 | 60 | 49.1 | 33.1 | 82.3 | 26.2
O=C(/C=C/c1cccnc1)NCCCCC1CCN(C(=O)c2ccccc2)CC1 + C[C@]1(c2nc3c(C(N)=O)cccc3[nH]2)CCCN1 [Veliparib] (first compound 0.05 µM, partner dose 7 µM) | 3.79 | 46.8 | 71.3 | 65.8 | 81.9 | 48.2 | 45 | 96.1 | 94.9 | 40.3
CC1(C)CCC(c2ccc(Cl)cc2)=C(CN2CCN(c3ccc(C(=O)NS(=O)(=O)c4ccc(N[C@H](CCN5CCOCC5)CSc5ccccc5)c(S(=O)(=O)C(F)(F)F)c4)cc3)CC2)C1 + Cn1cc(/C=C2\C(=O)Nc3cccnc32)c2ccccc21 [GW441756] (first compound 2 µM, partner dose 2 µM) | 83.5 | 80.9 | 76.8 | 80.2 | 75.4 | 79.4 | 81.5 | 96.7 | 50.8 | 107
Cc1ccc(Nc2nccc(N(C)c3ccc4c(C)n(C)nc4c3)n2)cc1S(N)(=O)=O [Pazopanib] + C=CCNC1=C2C[C@@H](C)C[C@H](OC)[C@H](O)[C@@H](C)/C=C(\C)[C@H](OC(N)=O)[C@@H](OC)/C=C\C=C(/C)C(=O)NC(=CC1=O)C2=O [Tanespimycin] (first compound 2 µM, partner dose 0.01 µM) | 54.6 | 71 | 69.8 | 82.7 | 106 | 88.5 | 84.1 | 72 | 24.5 | 66.9
Cc1ccc(Nc2nccc(N(C)c3ccc4c(C)n(C)nc4c3)n2)cc1S(N)(=O)=O [Pazopanib] + CCN(CC)CCCCNc1ncc2cc(-c3cc(OC)cc(OC)c3)c(NC(=O)NC(C)(C)C)nc2n1 [PD173074] (first compound 2 µM, partner dose 0.5 µM) | 68.2 | 71.4 | 103 | 70.2 | 79.8 | 94 | 62.6 | 83.2 | 85.9 | 79.2
CC1(C)CCC(c2ccc(Cl)cc2)=C(CN2CCN(c3ccc(C(=O)NS(=O)(=O)c4ccc(N[C@H](CCN5CCOCC5)CSc5ccccc5)c(S(=O)(=O)C(F)(F)F)c4)cc3)CC2)C1 + Cn1sc(=O)n(Cc2ccccc2)c1=O [TDZD-8] (first compound 2 µM, partner dose 2 µM) | 61 | 93.9 | 67.9 | 71.1 | 37 | 68 | 77.6 | 82.1 | 13.2 | 48.4
CC1(C)CCC(c2ccc(Cl)cc2)=C(CN2CCN(c3ccc(C(=O)NS(=O)(=O)c4ccc(N[C@H](CCN5CCOCC5)CSc5ccccc5)c(S(=O)(=O)C(F)(F)F)c4)cc3)CC2)C1 + CN1CCN(c2ccc3nc(-c4c(N)c5c(F)cccc5[nH]c4=O)[nH]c3c2)CC1 [Dovitinib] (first compound 2 µM, partner dose 0.5 µM) | 38.4 | 52.7 | 44.1 | 13.8 | 33.2 | 42.2 | 6.19 | 36.1 | 21.4 | 46.5
O=C(/C=C/c1cccnc1)NCCCCC1CCN(C(=O)c2ccccc2)CC1 + CC(C)(C)c1cnc(CSc2cnc(NC(=O)C3CCNCC3)s2)o1 [SNS-032] (first compound 0.05 µM, partner dose 0.05 µM) | 6.62 | 23.1 | 59.3 | 38.2 | 60 | 48.4 | 37.3 | 101 | 59.8 | 22
CC1(C)CCC(c2ccc(Cl)cc2)=C(CN2CCN(c3ccc(C(=O)NS(=O)(=O)c4ccc(N[C@H](CCN5CCOCC5)CSc5ccccc5)c(S(=O)(=O)C(F)(F)F)c4)cc3)CC2)C1 + Cn1c(=O)n(-c2ccc(C(C)(C)C#N)cc2)c2c3cc(-c4cnc5ccccc5c4)ccc3ncc21 [NVP-BEZ235] (first compound 2 µM, partner dose 0.02 µM) | 35.4 | 58.4 | 62.2 | 54.6 | 25.1 | 41.4 | 55.4 | 59.2 | 19.2 | 62.3
O=C(/C=C/c1cccnc1)NCCCCC1CCN(C(=O)c2ccccc2)CC1 + Cc1cn(-c2cc(NC(=O)c3ccc(C)c(Nc4nccc(-c5cccnc5)n4)c3)cc(C(F)(F)F)c2)cn1 [nilotinib] (first compound 0.05 µM, partner dose 1 µM) | 1.77 | 37.2 | 68.3 | 57.1 | 70.6 | 35.6 | 35.3 | 93 | 80.8 | 27.5
Cc1ccc(Nc2nccc(N(C)c3ccc4c(C)n(C)nc4c3)n2)cc1S(N)(=O)=O [Pazopanib] + C[C@]1(c2nc3c(C(N)=O)cccc3[nH]2)CCCN1 [Veliparib] (first compound 2 µM, partner dose 7 µM) | 68.7 | 69.2 | 90.3 | 59.3 | 69.4 | 80.9 | 57.9 | 69.5 | 64.8 | 72.3
CC1(C)CCC(c2ccc(Cl)cc2)=C(CN2CCN(c3ccc(C(=O)NS(=O)(=O)c4ccc(N[C@H](CCN5CCOCC5)CSc5ccccc5)c(S(=O)(=O)C(F)(F)F)c4)cc3)CC2)C1 + N#Cc1c(O)c2c(-c3ccc(-c4ccccc4O)cc3)csc2[nH]c1=O [A769662] (first compound 2 µM, partner dose 10 µM) | 74 | 110 | 70.5 | 72.6 | 42.6 | 50.9 | 85.3 | 80.9 | 46.5 | 69.1
CC1(C)CCC(c2ccc(Cl)cc2)=C(CN2CCN(c3ccc(C(=O)NS(=O)(=O)c4ccc(N[C@H](CCN5CCOCC5)CSc5ccccc5)c(S(=O)(=O)C(F)(F)F)c4)cc3)CC2)C1 + O=C(Nc1ccccc1)c1cc([N+](=O)[O-])ccc1Cl [GW9662] (first compound 2 µM, partner dose 10 µM) | 54.6 | 88.5 | 70 | 45.3 | 50.7 | 51 | 70.1 | 63.5 | 36.9 | 50.4
Cc1ccc(Nc2nccc(N(C)c3ccc4c(C)n(C)nc4c3)n2)cc1S(N)(=O)=O [Pazopanib] + O=c1cc(-c2cccc3c2Sc2ccccc2S3)oc(N2CCOCC2)c1 [KU55933] (first compound 2 µM, partner dose 5 µM) | 59.7 | 83.1 | 101 | 70.9 | 98 | 80.7 | 74.6 | 69.1 | 73.5 | 96
O=C(/C=C/c1cccnc1)NCCCCC1CCN(C(=O)c2ccccc2)CC1 + C[C@@H](Oc1cc(-c2cnn(C3CCNCC3)c2)cnc1N)c1c(Cl)ccc(F)c1Cl [Crizotinib] (first compound 0.05 µM, partner dose 1 µM) | 4.74 | 26.5 | 68.2 | 55.8 | 114 | 40.1 | 34.6 | 98.6 | 88 | 30.2
Cc1ccc(Nc2nccc(N(C)c3ccc4c(C)n(C)nc4c3)n2)cc1S(N)(=O)=O [Pazopanib] + CCCCCCCCCCCC1=C(O)C(=O)C=C(O)C1=O [Embelin] (first compound 2 µM, partner dose 6 µM) | 49.9 | 41.6 | 57.2 | 58.2 | 109 | 67 | 57.4 | 82.2 | 62.8 | 71.2
